Assay results as given in ChEMBL document CHEMBL4888484, “Replenishing the malaria drug discovery pipeline: Screening and hit evaluation of the MMV Hit Generation Library 1 (HGL1) against asexual blood stage Plasmodium falciparum ,using a nano luciferase reporter read-out” (2022).
About 540 (0.36%) of roughly 150,000 compounds showed an effect of 50% or more. Some of the results follow.

These molecules were tested on Plasmodium falciparum (assay: Primary screen in NF54 nanoGlo assay, in single point, at 2uM, 72h; a lower Z score goes with more inhibition). Details: timepoint 72 hour.
Type: functional, Erythrocyte
With `O=C(C1CCCCCCC1)N1CCCC1` the “% Inhibition” value was 3% and the Z score was -0.46.
With `Cn1c(Cn2ccnc2)nnc1C1CCN(C(=O)c2cccc(F)c2)CC1` the “% Inhibition” value was -14% and the Z score was 2.56.
In the case of `CC(Cc1cccs1)NS(=O)(=O)CC1CCN(C(=O)OCc2ccccc2)C1` (configuration not stated), the “% Inhibition” value is reported as 0% and the Z score is reported as -0.08.
With `COc1ccc(OC)c(-c2cnc(-c3ccc(CNC(=O)c4ccc(C(F)(F)F)c(F)c4)cc3)[nH]2)c1` the “% Inhibition” value was 16% and the Z score was -2.15.
With `O=C(c1cnn2ccc(C3CCN(S(=O)(=O)Cc4ccccc4Cl)CC3)cc12)N1CCCC1` the “% Inhibition” value was -10% and the Z score was 1.17.
For `Cc1c(C(=O)NCCc2ccc(Cl)s2)cnn1C`, the “% Inhibition” value was 1% and the Z score was -0.28.
In the case of `COc1ccc(C(=O)C(=O)Nc2c(F)cc(F)cc2-c2ccccc2)cc1`, the “% Inhibition” value is reported as -3% and the Z score is reported as 0.32.
With `OC1(Cc2ccc(F)cc2F)CC2CCC(C1)N2c1nc(C(F)(F)F)cs1` (configuration not stated) the “% Inhibition” value was 0% and the Z score was 0.03.
For `Cc1cc(NC(=O)NCC2CCN(C)CC2)cc(N2CCN(C)CC2)c1`, the “% Inhibition” value was -18% and the Z score was 2.32.
For `CC(=O)N1C[C@H]2CCN(C(=O)c3cc(F)ccc3F)C[C@@]2(CO)C1`, the “% Inhibition” value was -5% and the Z score was 0.74.
`C#CCOC(=O)CCNC(=O)C1CCCC1` was tested, and the “% Inhibition” value was -7% and the Z score was 0.88.
For `O=C(c1cn[nH]c1)N1CCC[C@H](Nc2cccc(Br)c2)C1`, the “% Inhibition” value was -17% and the Z score was 2.19.
In the case of `N#Cc1cnn(-c2ccc(NC(=O)C3CCC3)cc2)c1N`, the “% Inhibition” value is reported as -9% and the Z score is reported as 1.08.
In the case of `CC(C)[C@@H](NS(=O)(=O)C1CC1)c1nc(-c2ccncc2)no1`, the “% Inhibition” value is reported as -3% and the Z score is reported as 0.3.
For `CC(C)CC(C)OC(=O)C1CC(=O)N(C2CCS(=O)(=O)C2)C1` (configuration not stated), the “% Inhibition” value was 10% and the Z score was -0.98.
With `O=C1C[C@H](NS(=O)(=O)N2CCCCC2)CN1CCCc1ccccc1` the “% Inhibition” value was -23% and the Z score was 2.07.
In the case of `CN1CCN(C[C@H]2CC[C@@H](Cc3ccc(OC(F)(F)F)cc3)O2)CC1`, the “% Inhibition” value is reported as -2% and the Z score is reported as 0.43.
`COc1ccc2c(c1)CCc1c(C(=O)Nc3ccc(C(C)C)cc3)n[nH]c1-2` was tested, and the “% Inhibition” value was -1% and the Z score was 0.19.
In the case of `O=C(N[C@H]1CCOC[C@@H]1OCc1cscn1)c1cccc(-c2ncc[nH]2)c1`, the “% Inhibition” value is reported as -13% and the Z score is reported as 1.67.
For `COCC1(CNc2nccc(N)n2)CCCC1`, the “% Inhibition” value was 7% and the Z score was -1.07.
`COCCOC(=O)N1CCC2(CC1)CC(=O)N(Cc1ccc(Cl)cc1)C2` was tested, and the “% Inhibition” value was 4% and the Z score was -0.78.
In the case of `Cc1ccccc1CNC(=O)[C@]1(C)Cn2nc(-c3ccco3)cc2C(=O)N1Cc1ccccc1C`, the “% Inhibition” value is reported as 7% and the Z score is reported as -1.09.
With `Cn1ccnc1CN1C[C@@H](F)C[C@H]1CNc1ncnc2c1CCCCC2` the “% Inhibition” value was -4% and the Z score was 0.8.
With `Cc1cc(COC(=O)c2cscn2)nc(C)n1` the “% Inhibition” value was -7% and the Z score was 0.94.
For `CCOC1CC(NC(=O)OC(C)(C)C)(C(=O)O)C1(C)C` (configuration not stated), the “% Inhibition” value was 1% and the Z score was -0.26.
`CCc1cc(C(=O)N2CCOc3c(F)ccc(F)c32)n(C)n1` was tested, and the “% Inhibition” value was -10% and the Z score was 1.81.
In the case of `COc1ccccc1CCNC(=O)c1nc(C)ns1`, the “% Inhibition” value is reported as -10% and the Z score is reported as 1.59.
With `Cc1cc(C2CCN(c3ncnc(-c4cccc(F)c4)n3)CC2)[nH]n1` the “% Inhibition” value was -14% and the Z score was 1.17.
In the case of `COc1cc2ncn([C@H]3[C@@H]4OC[C@@H](O4)[C@@H](NCc4nccs4)[C@@H]3O)c2cc1OC`, the “% Inhibition” value is reported as 0% and the Z score is reported as 0.05.
`c1ccc(NCCCN[C@H]2COCc3ncccc32)cc1` was tested, and the “% Inhibition” value was -9% and the Z score was 1.22.
With `C[C@]1(O)CCN(c2nc(-c3ccccc3)no2)C[C@H]1Cc1ccccc1` the “% Inhibition” value was 4% and the Z score was -0.53.
In the case of `CCC[C@H]1CN(C(=O)c2cc3c(cc2C)OCCO3)C[C@@H]1N`, the “% Inhibition” value is reported as -7% and the Z score is reported as 0.95.
With `C[C@H]1CN(C(=O)c2ccc(C#N)s2)CC2(CCC2)O1` the “% Inhibition” value was -5% and the Z score was 0.97.
For `Cc1nonc1CC(=O)N[C@H]1COCC[C@@H]1Oc1ccccn1`, the “% Inhibition” value was 14% and the Z score was -1.78.
In the case of `CC(C)NC(=O)N1CCC[C@H]1C(=O)N1CC(CC(F)F)C1`, the “% Inhibition” value is reported as -8% and the Z score is reported as 1.57.
With `Cc1ccc(-n2nc(C)c3nc(CCC(=O)NCCN(C)C)c(=O)n(C)c32)cc1` the “% Inhibition” value was 9% and the Z score was -1.32.
With `Cc1nn(C)c(C)c1-c1cc(-c2c(F)cccc2Cl)nc(CC(N)=O)n1` the “% Inhibition” value was 1% and the Z score was -0.25.
For `C[C@H]1CN2C=NC(N3CCN(C(=O)c4ccccc4)CC3)=CC2=N1`, the “% Inhibition” value was -3% and the Z score was 0.63.
In the case of `COc1ccc(-n2cc(-c3cccc(OC)c3)nc2NC(=O)CN(CC2CC2)C(=O)C(C)C)cc1`, the “% Inhibition” value is reported as -7% and the Z score is reported as 1.05.
`O=C(Nc1cc(Cl)cc(Cl)c1)C(F)(F)F` was tested, and the “% Inhibition” value was -8% and the Z score was 0.87.
In the case of `Cc1cc(C(=O)NC2(c3ccccc3F)COC2)no1`, the “% Inhibition” value is reported as 7% and the Z score is reported as -1.46.
For `CC(=O)N1CCN(C(=O)c2cnn(-c3ncc(C)c(-c4ccc(F)cc4)n3)c2-c2cccs2)CC1`, the “% Inhibition” value was -19% and the Z score was 2.51.
For `COc1cc(-c2nc(=O)c(CCC(=O)NC3CC3)n[nH]2)ccc1OCc1cccc(F)c1`, the “% Inhibition” value was 24% and the Z score was -3.45.
For `CCCN1CCN(C(=O)Cc2ccon2)c2cc(F)ccc21`, the “% Inhibition” value was -3% and the Z score was 0.56.
`CC(C)c1cc(CN(C)c2cc([C@H]3C[C@H](N)C3)ncn2)on1` was tested, and the “% Inhibition” value was -9% and the Z score was 1.63.
In the case of `CC[C@H](NC1CCCCCC1)c1nc(C)c[nH]1`, the “% Inhibition” value is reported as -1% and the Z score is reported as 0.1.
In the case of `O=C1C[C@H](Nc2ccc(N3CCOCC3)cc2)C(=O)N1`, the “% Inhibition” value is reported as -16% and the Z score is reported as 1.97.
In the case of `O=C(c1ccc(F)c(Cl)c1)N1CC2CC1CO2` (configuration not stated), the “% Inhibition” value is reported as -18% and the Z score is reported as 2.09.
For `Cn1nc(C2CCC2)cc1NC(=O)C1CC2C=CC1C2` (configuration not stated), the “% Inhibition” value was -6% and the Z score was 0.99.
In the case of `CCN(CC)S(=O)(=O)c1cc2c(cc1N1CCCC1)Oc1ccccc1NC2=O`, the “% Inhibition” value is reported as -14% and the Z score is reported as 2.01.
`O=C(NCCc1cnn(-c2ccccc2)c1)c1cncc(Br)c1` was tested, and the “% Inhibition” value was -2% and the Z score was 0.47.
In the case of `O=C1NCCN(C(=O)NC2CCc3cn[nH]c3C2)C1c1ccccc1` (configuration not stated), the “% Inhibition” value is reported as 12% and the Z score is reported as -1.51.
`O=C(Cn1cc(-c2ccccc2)c2ncn(C3CC3)c(=O)c21)Nc1ccc(Cl)cc1F` was tested, and the “% Inhibition” value was 7% and the Z score was -1.06.
`O=C(Nc1nc(-c2ccc(Br)cc2)cs1)C1CCCC1` was tested, and the “% Inhibition” value was -4% and the Z score was 0.49.
`Cc1cc2cc(C(=O)N3CCS(=O)(=O)C[C@@H]3C)oc2cc1C` was tested, and the “% Inhibition” value was 5% and the Z score was -0.97.
In the case of `CCn1ncc(CNc2ncc(C)cc2Br)n1`, the “% Inhibition” value is reported as -7% and the Z score is reported as 0.74.
With `CC(=O)N1CC[C@H](NCC2(C)OCCO2)c2ccc(F)cc2C1` the “% Inhibition” value was -13% and the Z score was 1.42.
For `CN(Cc1ccccc1)C(=O)[C@H]1CCCN(c2ncnc3c2nc2n3CCCCC2)C1`, the “% Inhibition” value was -9% and the Z score was 1.46.
`CC(=O)N1CCC(C(=O)Nc2cc(C(F)(F)F)c[nH]c2=O)CC1` was tested, and the “% Inhibition” value was -7% and the Z score was 1.06.
`CC(NC(=O)c1ccc2ncsc2c1)C1CCCO1` (configuration not stated) was tested, and the “% Inhibition” value was -5% and the Z score was 0.63.
With `O=C(Cc1noc2ccccc12)N[C@H]1CCCCNC1=O` the “% Inhibition” value was -11% and the Z score was 1.7.
`O=C(Cc1ccc(O)cc1)N1CCC(n2ccnn2)CC1` was tested, and the “% Inhibition” value was -8% and the Z score was 1.45.
`COCC(=O)NC[C@@H](c1ccco1)n1cccn1` was tested, and the “% Inhibition” value was 2% and the Z score was -0.26.
For `CC(C)(C)c1ccc(S(=O)(=O)N2CCC(C(=O)NCc3cscn3)CC2)cc1`, the “% Inhibition” value was -9% and the Z score was 1.54.
With `NC(=O)c1ccc(CC(=O)N2CC3(CC3)Oc3ccccc32)cc1` the “% Inhibition” value was -4% and the Z score was 0.7.
With `COc1ccc(CNC(=O)c2nc3cccnc3n(C)c2=O)cc1` the “% Inhibition” value was -5% and the Z score was 0.51.
`CCC(NC(=O)N1CCC(OCC(C)C)C1)c1nccs1` (configuration not stated) was tested, and the “% Inhibition” value was -21% and the Z score was 2.52.
In the case of `COc1ccnc(Cn2c(C)cc(=O)cc2O)c1OC`, the “% Inhibition” value is reported as -9% and the Z score is reported as 1.62.
With `CCCc1noc(CN(C)C(=O)NCCc2noc(CO)n2)n1` the “% Inhibition” value was 1% and the Z score was -0.28.
`C=CCN(C)C(=O)c1cnc(CC)nc1` was tested, and the “% Inhibition” value was -8% and the Z score was 0.79.
With `O=C1OCCC1N1CCCC(c2ccn[nH]2)C1` (configuration not stated) the “% Inhibition” value was -3% and the Z score was 0.43.
In the case of `CCOc1ccc(NC(=O)Cc2c(O)nc3ccccc3c2O)cc1`, the “% Inhibition” value is reported as -9% and the Z score is reported as 1.39.
`O=C(Cc1ccsc1)N1CCO[C@H](C(=O)N2CCC(F)(F)CC2)C1` was tested, and the “% Inhibition” value was -9% and the Z score was 1.05.
For `C[C@](O)(CCc1ccccc1)CNC(=O)COc1ccc(Cl)cc1`, the “% Inhibition” value was -3% and the Z score was 0.43.
For `CC(C)OCCNC(=O)NC[C@H]1CCN(C)c2ccccc21`, the “% Inhibition” value was -6% and the Z score was 0.64.
In the case of `CC(C)n1nc(C(=O)N2CCCCC2)c2c1CCOC2`, the “% Inhibition” value is reported as -10% and the Z score is reported as 1.29.
`Cc1cccc(NC(=O)C(F)(F)F)c1` was tested, and the “% Inhibition” value was -6% and the Z score was 0.8.
For `Cc1ccc2c(c1)CCCN2C(=O)c1cnc2onc(C)c2c1`, the “% Inhibition” value was 10% and the Z score was -1.66.
`Cc1[nH]ccc(=O)c1OCC(=O)Nc1ccccc1F` was tested, and the “% Inhibition” value was -4% and the Z score was 0.56.
For `Cc1csc2nc(CC(=O)Nc3ccnn3[C@H]3CCCOC3)cn12`, the “% Inhibition” value was -7% and the Z score was 1.34.
For `Cn1c(CN2CCC(Cc3ccccc3)CC2)cc(=O)n(C)c1=O`, the “% Inhibition” value was -8% and the Z score was 0.69.
For `CCOc1ncccc1[C@H](C(=O)O)N1CCC(N2CCCCC2)CC1`, the “% Inhibition” value was 2% and the Z score was -0.31.
For `CCc1nnc(CNC(c2ccccc2)C2CCCc3ccccc32)o1` (configuration not stated), the “% Inhibition” value was 6% and the Z score was -0.85.
In the case of `CC(C)CN(CC(=O)N1CCCN(c2ccc(-c3ccccc3)nn2)CC1)C(=O)C1CCC1`, the “% Inhibition” value is reported as 1% and the Z score is reported as -0.09.
In the case of `Cc1cccc(N(C)Cc2ccc(C(=O)N(C)C)[nH]2)c1`, the “% Inhibition” value is reported as -2% and the Z score is reported as 0.38.
For `O=C(c1cc2n(n1)CCCO2)N1CCC2C1C2C(F)(F)F` (configuration not stated), the “% Inhibition” value was -16% and the Z score was 2.66.
